# Experimental data published in PubChem BioAssay (Tox21).
# Results filed as inconclusive are left out. The call rests on the fitted dose curve; in most records, active means well fitted activation curve with a large enough effect in the repeat runs; inconclusive means weak or mixed curves; inactive means flat fitted curve, though single readings scatter. Some compounds were tested as several samples or in several runs, with calls that do not always agree. Certain results were filed several times, with different values. This list holds those alone. The source may hold further records. Results that share an entry repeat one measurement across runs, samples, wells, individuals or studies. Records carry a tag for their origin. The letters are not those of the source and start again with each entry.
# Assay: A CellTox Green Cytotoxicity Assay to monitor cytotoxicity in HEK293 cells - 24 hour (AID 1224875); further: nearly all actives have a fitted effect of over 45% in size
# Details: CellTox Green fluorescence; series mostly up to 35.3 µM
# Summary of the method: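 HEK293 cells premixed with CellTox Green dye were seeded at 600 cells/well and left 5 h at 37 C/5% CO2 before pin transfer of 23 nL compound in DMSO. Fluorescence from dye bound to dead-cell DNA was read during 40 h treatment.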
# Potency means the concentration at half of the fitted maximal effect.
structure (smiles),measurement,value
Cc1cc(O)c(C(C)C)cc1Cl,Potency,active: 34.7 µM [sample A] and inactive [sample B]
